Measurements taken from patent publication US20260224723A1, “ANTI-B7H3 ANTIBODY-DRUG CONJUGATE AND USE THEREOF” (Duality Biologics (Suzhou) Co., Ltd., priority 2022, published 2026).

Experiments:
[1] = Hydrophobicity by HIC-HPLC; format: physicochemical
Protocol: The hydrophobic property of the antibody in Example 1.2 was detected by HPLC 1260 infinity II system (Agilent Technologics™) with a TSKgel butyl-NPR column (Tosoh-0042168). Each antibody sample was diluted to 0.5 mg/mL with PBS buffer, and 20 μL of the diluted sample was injected into the column and separated at a flow rate of 0.5 mL/min for 61 min. The running buffers were 25 mM sodium phosphate, pH 7.0 (buffer A) and 25 mM sodium phosphate, 1.5 M (NH4)2SO4, pH 7.0 (buffer D). The running gradient from 3 min to 53 min was from 0% to 100% buffer D. The peak retention was detected with UV light at wavelengths of 280 nm and 230 nm. The retention time was analyzed by integrating all peak areas from 20 min to 40 min using HIC-HPLC analysis method. The operation and analysis software was the OpenLab CDS workstation (v2.6.0.691).

human 4IgB7H3 = biological target: T1, human 4IgB7H3 (Homo sapiens, UniProt Q5ZPR3); test: SPR binding affinity for human 4IgB7H3 (Biacore 8K); settings: analyte human 4IgB7H3
T1 construct: Uniprot ID: Q5ZPR3, amino acids 29-461; 6xHis (C); made in house; host or cells: Expi293F
T1 sequence (Q5ZPR3 29-461): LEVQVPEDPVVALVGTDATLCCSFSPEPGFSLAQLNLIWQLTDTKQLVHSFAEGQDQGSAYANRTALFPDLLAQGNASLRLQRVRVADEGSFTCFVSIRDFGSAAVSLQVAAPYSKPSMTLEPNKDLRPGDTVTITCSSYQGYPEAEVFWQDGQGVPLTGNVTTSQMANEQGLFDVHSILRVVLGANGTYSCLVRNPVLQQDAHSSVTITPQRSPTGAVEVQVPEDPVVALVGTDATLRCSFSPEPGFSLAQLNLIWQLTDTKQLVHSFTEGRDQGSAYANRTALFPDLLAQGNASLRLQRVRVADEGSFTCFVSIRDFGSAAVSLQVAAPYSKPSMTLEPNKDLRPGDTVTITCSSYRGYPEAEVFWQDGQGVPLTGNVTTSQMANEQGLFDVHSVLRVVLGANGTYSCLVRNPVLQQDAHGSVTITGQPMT
Protocol: The affinity of antibodies for human 4IgB7H3 was determined using surface plasmon resonance (SPR). The affinity of antibodies for human 4IgB7H3 was determined by Biacore 8K. An activator was prepared by mixing 400 mM EDC and 100 mM NHS (GE) immediately prior to injection into the channel. The CM5 sensor chip was activated for 420 seconds with the activator. Goat anti-human Fc IgG (30 μg/mL in 10 mM NaAc, pH 4.5) was then injected into the channel at a flow rate of 10 μL/min for 420 seconds. The chip was deactivated by 1 M ethanolamine hydrochloric acid. The antibodies diluted in running buffer (1×HBS-EP+) were injected into the channel at a flow rate of 10 μL/min for 30 seconds. Seven concentrations (100 nM, 50 nM, 25 nM, 12.5 nM, 6.25 nM, […], and 1.563 nM) of analyte human 4IgB7H3 were injected sequentially into the channel at a flow rate of 30 μL/min for an association phase of 180 seconds, followed by dissociation of 3600 seconds. Glycine (10 mM, pH 1.5) was injected as regeneration buffer after the dissociation phase.
The sensorgrams for the reference channel and the buffer channel were subtracted from the test sensorgrams. The experimental data were fitted with a 1:1 binding model. The molecular weight of the human 4IgB7H3 used in the calculation was 47.8 kDa.
The experimental data were fitted by a 1:1 binding model bundled with the Biacore 8K evaluation software.

[2] = system: PC-3 human prostate cancer cells; test: PC-3 subcutaneous xenograft tumor-bearing mouse model; format: in vivo, mice
Description: 6- to 8-week-old female BALB/c Nude mice (purchased from Zhejiang Vital River Laboratory Animal Technology Co., Ltd.) were used as test animals. 5×10^6 PC-3 human prostate cancer cells were inoculated subcutaneously into the right sides of the necks or dorsa of 6- to 8-week-old female BALB/c Nude mice. The growth of tumors was observed. When the volume of the tumors reached about 155 mm^3, the tumor-bearing mice were randomized into groups with 6 mice in each of the blank control group and the treatment groups. […] Doses administered were 2 mg/kg and 6 mg/kg. The experiment ended on day 21. Experimental grouping and dosing were as follows.
(§1) At the end of the experiment, mice were euthanized and tumor inhibition rate TGI was calculated as follows:
(§2) [formula] • Ti: mean tumor volumes of the treatment groups and the positive control group on day i of administration; • T0: mean tumor volumes of the treatment groups and the positive control group on day 0 of administration; • Vi: mean tumor volume of the negative control group on day i of administration; • V0: mean tumor volume of the negative control group on day 0 of administration.

[3] = system: patient-derived prostate cancer PR9587 tumor tissues; test: PR9587 prostate cancer patient-derived xenograft model; format: in vivo, mice
Description: Patient-derived prostate cancer PR9586 and PR9587 tumor tissues were separately inoculated subcutaneously into NPG or NOG mice. When the tumors grew to about 500-800 mm^3, the tumor tissues were collected and the mice were euthanized. The collected tumor tissues were cut into tumor masses of a diameter of 2-3 mm and then inoculated subcutaneously into the right anterior scapula of the NPG or NOG mice. When the mean tumor volume of the tumor mass-inoculated NPG or NOG mice reached about 100-200 mm^3, the mice were randomized into groups with 6 mice in each of the blank control group and the treatment group.
The experiment ended on day 25 (for mice inoculated with PR9586) or on day 48 (for mice inoculated with PR9587). After the administration was started, the body weight and tumor size of the mice were measured twice a week. Calculation formula for tumor volume: Tumor volume (mm^3)=½×(a×b^2) (where a represents long diameter and b represents short diameter).
as §1
as §2, with “[formula] • wherein,” for “[formula]”, “volume” for “volumes”, “treatment” for “treatment groups and the positive control”

[4] = 2 mg/kg i.v. single dose, day 21
[5] = 6 mg/kg i.v. single dose, day 21
[6] = 10 mg/kg i.v. once every two weeks x2, Day 48

B1: W301088-1.145.16-z3-p1-uIgG1KV320: humanized anti-B7H3 IgG1 antibody, heavy chain SEQ ID NO: 12, light chain SEQ ID NO: 13 (antibody)
heavy: QVQLQESGPGLVKPSQTLSLTCTVTDYSITGDYAWNWIRQHPGKGLEWIGYISYSGSTSYNPSLQSRVTISRDTSKNQFSLKLSSVTAADTAVYFCARSLGRRWYFVVWGQGTTVTVSSASTKGPSVFPLAPSSKSTSGGTAALGCLVKDYFPEPVTVSWNSGALTSGVHTFPAVLQSSGLYSLSSVVTVPSSSLGTQTYICNVNHKPSNTKVDKRV[not shown - human IgG1 Fc with changes]
light: DIVMTQSPDSLAVSLGERATINCKSSQSLLQSSNQKNYLAWYQQKPGQPPKLLIYFASTRESGVPDRFSGSGSGTDFTLTISSLQAEDVAVYYCQQHYSAPWTFGGGTKVEIKRTVAAPSVFIFPPSDEQLKSGTASVVCLLNNFYPREAKVQWKVDNALQSGNSQESVTEQDSKDSTYSLSSTLTLSKADYEKHKVYACEVTHQGLSSPVTKSFNRGEC
HIC retention time [1]: 23.52 min
ka (human 4IgB7H3): 657000 M⁻¹ s⁻¹
kd (human 4IgB7H3): 4.65e-05 s⁻¹

B2: WBP301088-X2: antibody WBP301088 conjugated to linker-payload X2; the DAR6 batch was used in Examples 3-11 (conjugate)
heavy: QVQLQESGPGLVKPSQTLSLTCTVTDYSITGDYAWNWIRQHPGKGLEWIGYISYSGSTSYNPSLQSRVTISRDTSKNQFSLKLSSVTAADTAVYFCARSLGRRWYFVVWGQGTTVTVSSASTKGPSVFPLAPSSKSTSGGTAALGCLVKDYFPEPVTVSWNSGALTSGVHTFPAVLQSSGLYSLSSVVTVPSSSLGTQTYICNVNHKPSNTKVDKRV[not shown - human IgG1 Fc with changes]
light: DIVMTQSPDSLAVSLGERATINCKSSQSLLQSSNQKNYLAWYQQKPGQPPKLLIYFASTRESGVPDRFSGSGSGTDFTLTISSLQAEDVAVYYCQQHYSAPWTFGGGTKVEIKRTVAAPSVFIFPPSDEQLKSGTASVVCLLNNFYPREAKVQWKVDNALQSGNSQESVTEQDSKDSTYSLSSTLTLSKADYEKHKVYACEVTHQGLSSPVTKSFNRGEC
Tumor volume ([2]; 2 mg/kg i.v. single dose, day 0): 155 ± 7 mm^3
Tumor volume ([2]; 2 mg/kg i.v. single dose, day 4): 202 ± 8 mm^3
Tumor volume ([2]; 2 mg/kg i.v. single dose, day 7): 248 ± 23 mm^3
Tumor volume ([2]; 2 mg/kg i.v. single dose, day 11): 268 ± 27 mm^3
Tumor volume ([2]; 2 mg/kg i.v. single dose, day 14): 274 ± 28 mm^3
Tumor volume ([2]; 2 mg/kg i.v. single dose, day 18): 282 ± 32 mm^3
T/C [2, 4]: 29.30%
TGI [2, 4]: 83.41%
Tumor volume [2, 4]: 298 ± 37 mm^3
Tumor volume ([2]; 6 mg/kg i.v. single dose, day 0): 155 ± 9 mm^3
Tumor volume ([2]; 6 mg/kg i.v. single dose, day 4): 199 ± 11 mm^3
Tumor volume ([2]; 6 mg/kg i.v. single dose, day 7): 233 ± 6 mm^3
Tumor volume ([2]; 6 mg/kg i.v. single dose, day 11): 241 ± 6 mm^3
Tumor volume ([2]; 6 mg/kg i.v. single dose, day 14): 225 ± 14 mm^3
Tumor volume ([2]; 6 mg/kg i.v. single dose, day 18): 231 ± 15 mm^3
T/C [2, 5]: 18.06%
TGI [2, 5]: 96.62%
Tumor volume [2, 5]: 184 ± 11 mm^3
anti-tumor activity (in words) ([2]; single dose, 2 and 6 mg/kg): significant dose-dependent anti-tumor activity
T/C [3, 6]: 30.91%
TGI [3, 6]: 69.09%
Tumor volume (mean ± SEM) [3, 6]: 90.29 ± 39.21 mm^3
anti-tumor activity (in words) ([3]; PDX models (PR9586, PR9587), 10 mg/kg): The results indicate that the antibody-drug conjugate WBP301088-X2 of the present application showed significant anti-tumor activity after the administration.
